# Data as given in PMC6212790.
# This is one part of the list. At the low end of the ranking, values are background and their order means little.
# Target: T1, GST-Rok (full length) (UniProt O34857)
# T1 sequence: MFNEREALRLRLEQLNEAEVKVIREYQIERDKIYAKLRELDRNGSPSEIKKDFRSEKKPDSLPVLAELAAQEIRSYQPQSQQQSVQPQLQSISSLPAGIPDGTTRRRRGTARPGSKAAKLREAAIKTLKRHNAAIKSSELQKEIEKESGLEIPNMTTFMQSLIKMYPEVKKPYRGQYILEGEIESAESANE
# Experiment: protein binding microarray;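 also: rank score from −0.5 (least bound) to 0.5 (best bound)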
# Settings: Rok is a gene silencer of Bacillus subtilis; high values mean tight binding; most listed sequences are background and not binding sites; double strand, one strand shown
row,Sequence,binding signal [E-score]
1,GCTATACC,-0.0167
2,AGCGCCCA,-0.282
3,CTGATCAG,0.138
4,AGACGCCT,-0.229
5,CGCAACAC,-0.0368
6,AGGTTCAG,0.0108
7,ACGCTCTC,-0.384
8,ACGATACG,0.122
9,TACCGCCA,0.0353
10,CCGATATA,0.297
11,ACCATGAG,0.0279
12,AACCAGCT,-0.112
13,TGAGCAAA,0.0435
14,GGCTGCCC,-0.342
15,ATGGAGAG,-0.197
16,AGATTCCT,0.106
17,CGTACCTC,-0.098
18,ACATGGCT,0.0198
19,CGTGCAAA,-0.0205
20,GTTATGGA,0.064
21,CTGGCCGA,-0.153
22,GCCGCGGA,-0.0998

row,Sequence,binding signal [E-score]
1,ATTTTTTC,-0.0958
2,CACGAATC,0.0942
3,GGCACGGA,-0.161
4,GAAGATTA,0.224
5,AATATTTC,0.182
6,ATTCCTTG,-0.0405
7,ACCGGGCC,-0.325
8,CAGCCTCC,-0.379
9,GGAAGGCC,-0.457
10,CTTAATGC,0.13
11,CGGGAAGA,-0.189
12,AAGATCGG,-0.128
13,ATACTAGC,0.321
14,GTGCGAAC,-0.149
15,CATTTGCG,-0.059
16,AAGACAGT,-0.0316
17,GAGTTACA,0.173
18,GTCTCACA,-0.154
19,GCCTCTTA,-0.27
20,ACCCCTGC,-0.316
21,TCCCAAGA,-0.247
22,CCTAGGCG,-0.33

row,Sequence,binding signal [E-score]
1,CTAATGCA,0.196
2,GCGCGTCC,-0.156
3,ATGTCACG,-0.0246
4,CGTGCCTC,-0.277
5,AAGAGGGC,-0.232
6,ATCTCCAT,0.247
7,TAAAATAA,0.247
8,GCGGACAC,-0.157
9,GTTGCCTA,0.156
10,CGCCCAGC,-0.373
11,CATTTAGC,0.0858
12,TGGAGACA,-0.258
13,CAAACTCC,-0.0836
14,GCTGCACA,0.105
15,AGGTTCGA,-0.0964
16,AATGTGAA,0.22
17,AGAAGTTA,0.277
18,GATGATGC,-0.101
19,CCCAAAAG,-0.247
20,ACAACCCT,-0.042
21,ACCCGGCG,-0.317
22,AAACCGCT,-0.108

row,Sequence,binding signal [E-score]
1,ATACGTAT,0.292
2,CAGATTCA,0.0471
3,CCTAACAA,0.191
4,ATTAACCA,0.0869
5,GATTCCAA,0.0401
6,AGGGTGCC,-0.261
7,TCTGCTAA,0.0588
8,ACCTTCAT,-0.127
9,AATGCGGG,-0.104
10,CGACCAGC,-0.24
11,CTGTCACC,-0.289
12,ACCTACCT,0.271
13,ACGGGCAA,-0.222
14,GCGTACCC,-0.00127
15,GGGAAATA,0.127
16,CTCAGGAC,-0.308
17,CGCCGGGA,-0.379
18,ATCGAAGC,0.0534
19,CGCAGCAA,-0.218
20,ACGGCCCC,-0.269
21,ATACGGGG,-0.0292
22,CGTACACC,0.0304

row,Sequence,binding signal [E-score]
1,CCCAGATA,0.0453
2,AGTCTTCC,-0.028
3,CTAGAGGC,-0.244
4,GATATAGC,0.0453
5,GCACGTTA,0.108
6,GGCATGCC,-0.456
7,ATAACTAA,0.26
8,GGCCAGAA,0.0721
9,AGGACCAG,-0.223
10,GCAGTGCC,-0.22
11,AATATGGC,0.219
12,CATGGATC,0.0367
13,GCGATCAA,-0.0707
14,GTTCCACA,0.023
15,GCTAGTGA,0.0873
16,GTTTATAA,0.126
17,AGGGGAGG,-0.376
18,ACGTAAGG,-0.0185
19,GACCGGCA,0.0209
20,ACAGGGAA,0.0305
21,GAGACCCA,-0.192
